From PubChem BioAssay AID463173 (ICCB-Longwood Screening Facility, Harvard Medical School, 2010)
About 1,700 (3.3%) of roughly 52,000 compounds were called active. No stated cut-off is given here; in the data, active means survival mostly below about 52% (no sharp cut-off); inactive means mostly above about 56%. This is one part of the list.

system: Wild type; test: S. aureus survival, RN4220 and DeltatarO strains – OD600, teichoic acid synthesis inhibitors, primary screen (AID 463173); details: S. aureus RN4220 wild type/DeltatarO growth, OD600, 18 h, hits give low values, screened at 18.75 µg/mL (by protocol)

Row | SMILES | survival
1 | O=C(Nc1cccc2ccccc12)OCCn1nnnc1CN1CCOCC1 | inactive: 115%
2 | CCCNC(=O)CN1C(=O)COc2ccc(S(=O)(=O)N3CCCCCC3)cc21 | inactive: 80%
3 | O=C(NCc1cccc(Br)c1)C1CCCCN1S(=O)(=O)c1ccc(F)cc1 (stereo not given) | inactive: 70%
4 | COc1cccc(NC(=O)C(C)n2c(=O)cc(C(F)(F)F)c3c(C)nn(C)c32)c1 (stereo not given) | inactive: 75%
5 | CC(C)Oc1ccc(CNC(=O)C(C)n2ccc3cc(S(=O)(=O)N4CCCCCC4)ccc32)cc1 (stereo not given) | inactive: 69%
6 | CCc1ccc(CNC(=O)CN2C(=O)C3CCCCN3c3ccc(C(=O)N4CCCC4)cc32)cc1 (stereo not given) | inactive: 71%
7 | CC1CCN(S(=O)(=O)c2ccc3c(c2)N(C)C(=O)CC(=O)N3C)CC1 | inactive: 74%
8 | COc1ccc(OCc2nc3ccccc3n2Cc2ccc(C(C)(C)C)cc2)cc1 | active: 0%
9 | CCOc1ccccc1NC(=O)Cn1c(=O)nc(-c2ccccc2F)c2cc(Cl)ccc21 | inactive: 72%
10 | COc1ccccc1NC(=O)c1cc2c(-c3ccccc3)nn(-c3ccccc3)c2s1 | inactive: 77%
11 | CCc1ccccc1NC(=O)Cn1c(=O)n(C(C)C)c(=O)c2oc3ccccc3c21 | inactive: 94%
12 | CCN(CC)C(=O)Cn1c(SCC(=O)Nc2ccc(F)cc2)nc2ccccc21 | inactive: 73%
13 | COCCNC(=O)c1ccc(Cn2c(SCC(N)=O)nc3ccccc3c2=O)cc1 | inactive: 82%
14 | CCOC(=O)CSc1nc(-c2cccnc2)nn1C(=O)c1ccccc1 | inactive: 111%
15 | Cc1cc(=O)n2nc(N3CCC(C(=O)Nc4ccc(Br)c(C)c4)CC3)sc2n1 | inactive: 94%
16 | CCOc1ccccc1C(=O)NCc1ccc2c(c1)CCN2C(=O)c1ccc(F)cc1 | inactive: 77%
17 | COc1ccc2c(CNC3CCC(C)CC3)c(C(=O)O)n(Cc3ccc(F)cc3)c2c1 (stereo not given) | inactive: 84%
18 | COc1cccc(OCCSc2nc3ccccc3n2CC(=O)N2CCOCC2)c1 | inactive: 81%
19 | Cc1ccc(N(Cc2cccs2)C(=O)c2ccc(OC(C)C)cc2)cc1 | inactive: 106%
20 | Cn1c(SCc2ccc(F)cc2)nc2ccc(C(=O)NCc3cccc(Cl)c3)cc21 | inactive: 86%
21 | COc1ccc2[nH]c(=O)c(CN(Cc3ccc4c(c3)OCO4)Cc3nnnn3CCc3ccccc3)cc2c1 | inactive: 113%
22 | CCN(C(=O)c1c(C)oc2ncnc(N3CCCCC3)c12)c1cc(C)ccc1C | inactive: 66%
23 | COc1ccc(-c2noc(CN(C(=O)c3ccc(C)cc3C)C(C)C)n2)cc1 | active: 0%

Row | SMILES | survival
24 | CCOC(=O)c1ccccc1NC(=O)CSc1ccc(-c2sc(C)nc2C)nn1 | inactive: 81%
25 | Cc1ccc(C(=O)NCCc2csc(-c3cccc(F)c3)n2)cc1C | inactive: 78%
26 | CCOC(=O)c1cnc2c(ccc3ccccc32)c1Nc1ccccc1O | inactive: 74%
27 | CCOC(=O)c1cccc(NC(=O)COc2ccc3c(C)cc(=O)oc3c2)c1 | inactive: 74%
28 | COc1ccc(C2CC(=O)Nc3c2c(C)nn3-c2nncc(-c3ccccc3)n2)c(OC)c1OC (stereo not given) | inactive: 86%
29 | COc1cc2nc(NCCc3cccc(C)c3)n3nc(-c4ccccc4)nc3c2cc1OC | inactive: 77%
30 | CCOc1ccccc1C(=O)Nc1cccc(-c2nc3ccccc3s2)c1 | inactive: 48%
31 | CC1=C(C#N)c2nc(N)c(C#N)c(C)c2/C1=C\C=C\c1ccccc1 | inactive: 117%
32 | Cc1cc(C)cc(NC(=O)NCc2noc3ccccc23)c1 | inactive: 87%
33 | CCC(=O)N1CCCc2cc(S(=O)(=O)N3CCC(C(=O)NC4CCC(C)CC4)CC3)ccc21 (stereo not given) | inactive: 124%
34 | Cc1ccc(C)c(NC(=O)c2cnc(N3CCCC3)nc2C)c1 | inactive: 67%
35 | O=C(OCc1cc(=O)n2nc(C3CC3)sc2n1)c1cccc(NC(=O)c2ccccc2Cl)c1 | inactive: 57%
36 | COc1ccc(-c2cn3c(n2)sc2cc(C(=O)NCCc4ccccc4)ccc23)cc1 | inactive: 106%
37 | COc1ccccc1/C=C/c1nc(C#N)c(NCc2ccccc2)o1 | inactive: 95%
38 | CCc1ccccc1N(CC)C(=O)c1cc2c(s1)-c1ccccc1SC2 | active: -1%
39 | Cc1cccc(CNC(=O)C2CCN(c3nn4cc(-c5ccc(F)cc5)nc4s3)CC2)c1 | inactive: 60%
40 | COc1ccc(-n2ncc(C(=O)NCc3cccs3)c2C2CCN(C(=O)OC(C)(C)C)CC2)cc1 | inactive: 71%
41 | O=C(Cc1ccc(Cl)cc1)NC1CC(=O)N(c2ccc3c(c2)OCCO3)C1 (stereo not given) | inactive: 58%
42 | CC1CCN(C(=O)Cn2cc(SCC(=O)NCc3ccccc3)c3ccccc32)CC1 | inactive: 86%
43 | CCOc1ccc(C(c2c(O)cc(C)n(Cc3ccco3)c2=O)N2CCN(C)CC2)cc1 (stereo not given) | inactive: 66%
44 | Cc1cc(C)nc(Oc2ccc(Br)cc2Br)n1 | inactive: 117%
45 | CCOc1ccc(-c2cn3c(n2)sc2cc(C(=O)NC(C)C45CC6CC(CC(C6)C4)C5)ccc23)cc1 (stereo not given) | inactive: 126%
46 | N#C/C(=C\Nc1cccc(C(F)(F)F)c1)C(=O)N1CCOCC1 | inactive: 111%

Row | SMILES | survival
47 | Cn1nnc2cc(C(=O)N3CCCCCC3)ccc21 | inactive: 112%
48 | CCC(Sc1nnc(-c2ccc(F)cc2)c(-c2ccc(F)cc2)n1)C(=O)NC1CCCC1 (stereo not given) | inactive: 63%
49 | CCc1nnc(NC(=O)c2nc(SCc3cccc(C)c3)ncc2Cl)s1 | inactive: 56%
50 | O=S(=O)(c1ccccc1)n1nc(-c2ccco2)nc1NCc1ccccc1 | inactive: 84%
51 | Cc1cccc(-n2ncc3c(NCCOCCO)ncnc32)c1 | inactive: 73%
52 | CC(Nc1oc(-c2ccc(COc3ccccc3)o2)nc1C#N)c1ccccc1 (stereo not given) | inactive: 77%
53 | COc1cccc(N2CC(NC(=O)/C=C\c3ccccc3)CC2=O)c1 (stereo not given) | inactive: 88%
54 | O=C(CSc1nc2c([nH]c3ccccc32)c(=O)n1-c1ccccc1F)Nc1cccc(Cl)c1 | inactive: 81%
55 | CCC(=O)N1CCc2cc(S(=O)(=O)CCC(=O)Nc3cc(Cl)ccc3OC)ccc21 | inactive: 73%
56 | O=C(CSc1nc2ccccc2c(=O)n1Cc1ccco1)Nc1ccccc1 | inactive: 106%
57 | COc1ccc(CNC(=O)C2CCN(S(=O)(=O)c3cccc(-c4noc(C)n4)c3)CC2)cc1 | inactive: 76%
58 | O=C(c1cc2sccc2n1Cc1ccccc1)N1CCCC1 | inactive: 125%
59 | Cc1cccc(Cn2c(CN3CCC(C(=O)NC(C)C)CC3)cc3ccccc32)c1 | inactive: 81%
60 | COc1ccc(C2C(C(=O)Nc3ccccc3)=C(C)Nc3nc(-c4ccc(Cl)cc4)nn32)cc1 (stereo not given) | inactive: 111%
61 | Cc1ccccc1CNCCCSc1nnnn1C | inactive: 98%
62 | Cc1ccc(NC(=O)CSCc2cc(=O)c3ccccc3[nH]2)c(C)c1 | inactive: 135%
63 | CCOc1ccc(CNC(=O)c2cc3c(=O)oc4ccc(C)cc4c3s2)cc1 | inactive: 91%
64 | COc1ccc(-c2cn3c(n2)sc2cc(C(=O)NCCCN4CCN(C)CC4)ccc23)cc1 | inactive: 108%
65 | Cc1ccc(-n2c(=O)c3c(C)c(C(=O)N(C)C)sc3n(Cc3ccccc3C)c2=O)cc1C | inactive: 73%
66 | COc1ccc(Cn2c(CO)cnc2SCc2ccccc2)cc1 | inactive: 69%
67 | O=C(COCc1cc(-c2ccc(F)cc2)on1)Nc1cccc(C(F)(F)F)c1 | inactive: 77%
68 | CCCOc1ccc(C2C(=O)N(C3CCCCC3)CC(=O)N2C2CCCCC2)cc1OC (stereo not given) | inactive: 77%
69 | CCC(C)Nc1nc(OC(C(F)(F)F)C(F)(F)F)nc(N(CC)CC)n1 (stereo not given) | inactive: 101%

Row | SMILES | survival
70 | Cc1cccc(Nc2nc(-c3ccccc3)nc3ccccc23)c1 | active: -1%
71 | O=C(O)C(=Cc1ccc(-c2cccc(C(F)(F)F)c2)o1)C(=O)O | inactive: 107%
72 | Cc1cccc(OC(=O)CSc2nnc(-c3cccs3)o2)c1C | inactive: 82%
73 | Cc1ccc(-n2ncc(C(=O)N3CCN(c4ccccc4F)CC3)c2C2CCN(C(=O)OC(C)(C)C)CC2)cc1C | inactive: 68%
74 | CSc1ncc(Cl)c(C(=O)Nc2c(C(=O)c3ccc(Cl)cc3)oc3ccccc23)n1 | inactive: 92%
75 | CCOC(=O)c1c(S(=O)(=O)N2CCCC(C(=O)Nc3cccc(CC)c3)C2)c(C)n(CC)c1C (stereo not given) | inactive: 135%
76 | CCOC(=O)c1c(C)[nH]c(C)c1S(=O)(=O)NCC(=O)Nc1cccc(Cl)c1 | inactive: 72%
77 | Cc1c(NC(=O)Cc2ccc(Cl)cc2)cccc1-c1nc2cccnc2s1 | inactive: 117%
78 | CCOc1ccc(CNC(=O)c2ccc(NC(=O)N3CCCCc4ccccc43)cc2)cc1 | inactive: 113%
79 | Cc1cccc(CNC(=O)Cn2nc(C)c3nn(-c4ccc(Cl)cc4)c(C)c3c2=O)c1 | inactive: 47%
80 | Cc1c(CNC2CCCCCC2)c(C(=O)O)c(C)n1Cc1cccc(Cl)c1 | inactive: 142%
81 | Cc1cc(C)cc(NC(=O)NCc2c(-n3cccc3)sc3c2CCCC3)c1 | inactive: 99%
82 | O=C(CSc1nc(Nc2ccccc2)c2ccccc2n1)c1ccc(Cl)cc1 | inactive: 82%
83 | Cc1ccccc1Nc1c(-c2c[nH]c3ccccc23)nc2ccc(Cl)cn12 | inactive: 82%
84 | Clc1cccc(CNCCCSc2nnnn2-c2ccccc2)c1 | inactive: 84%
85 | COC(=O)c1scc(-c2ccc(C)cc2)c1S(=O)(=O)Nc1cc(C)c(Cl)cc1OC | inactive: 128%
86 | CC(=O)N1CCN(c2csc3ccc(Cl)cc3c2=O)CC1 | inactive: 66%
87 | Cc1ccc(NS(=O)(=O)c2ccc3c(c2)n(C)c(=O)n3C)c(C)c1 | inactive: 67%
88 | CCCCOC(=O)c1ccc(NC(=O)c2ccc3c(c2)CCN3S(C)(=O)=O)cc1 | inactive: 111%
89 | Cc1cccc(C(c2sc3nc(-c4ccco4)nn3c2O)N2CCOCC2)c1 (stereo not given) | inactive: 75%
90 | Cc1cc(C)c(C#N)c(N2CCC(C(N)=O)CC2)n1 | inactive: 93%
